Sequences with one replicate were seen in a single cluster, so their values are uncertain.
system: ATP; assay: switch fluorescence ratio, 500 uM ATP over buffer (Cy3 cluster intensity, sum of 5 cycles each) (fold (ratio)); higher = stronger signal-on switching upon ATP binding; sequences stand for … in TCGTCGGCAGCGTCAGATGTGTATAAGAGACAGTTTTTTTTTTTTTTTTTTTTTTTTT…TC; settings: aptamer strand: ATP DNA aptamer (quencher-CACCTGGGGGAGTATTGCGGAGGAAGG + anchor), 100 nM annealed; ATP concentration: 500 uM; one replicate
Outline: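 The quencher-labelled ATP aptamer, at 100 nM, was annealed to Cy3-labelled switching-strand clusters on a modified Illumina MiSeq flow-cell. The clusters were imaged in selection buffer, then after 15 min with 500 uM ATP at 22 °C, and this buffer/ATP cycle ran five times with NaOH stripping and re-annealing between runs. Per-cluster fluorescence ratios, summed target-cycle over summed buffer-cycle Cy3 intensity, were averaged per switch-domain sequence. Clusters outside 100-1000 RFU were excluded.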
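Note: ATP exposure 15 min at 22 °C before imaging.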

Sequence	switch fluorescence ratio
ACTCACTTTC	1.18
ACTCAGACAG	1.1
ACTCAGCTTA	1.62
ACTCATAAGA	1.03
ACTCATGCGA	2.6
ACTCATTTGA	1.04
ACTCCCTGCT	1.11
ACTCGCTTAG	1.28
ACTCGGAAA	1.19
ACTCGGAGAG	1.02
ACTCGTAACC	1.09
ACTCGTTCGT	1.05
ACTCTATCAC	1.08
ACTCTATGTC	1.03
ACTCTGCGTA	2.27
ACTCTGTGCA	1.09
ACTCTGTTGT	1.02
ACTCTTCAAA	1.03
ACTGAAGTAG	0.989
ACTGAGACGC	0.993
ACTGAGTGGA	1.02
ACTGCCGG	1.02
ACTGCTTCAC	1.12
ACTGGAAACC	1.14
ACTGGATGCA	1.02

Sequence	switch fluorescence ratio
ACTGGATTTA	0.994
ACTGGCAATT	1.38
ACTGGCCGCT	1.05
ACTGGCCTAC	1.14
ACTGGCGCGT	1.02
ACTGGGCATC	1.06
ACTGGGTGTA	1.04
ACTGGTTTAC	1.04
ACTGTACCTC	1.43
ACTGTACTGA	1.48
ACTGTATTAA	1.19
ACTGTCTCAA	1.01
ACTGTGTCAC	1.05
ACTGTTCCTC	1.19
ACTGTTGTCG	0.967
ACTGTTTGCG	1.01
ACTTAACTAT	1.11
ACTTACAGTT	1.14
ACTTACTCCT	1.47
ACTTAGAAGA	1.01
ACTTAGACAT	1.06
ACTTAGAGGG	1.01
ACTTAGATC	1.03
ACTTAGCAAT	2.68
ACTTATATGT	0.948

Sequence	switch fluorescence ratio
ACTTATGTGT	0.985
ACTTCACTTA	1.4
ACTTCATTGT	0.999
ACTTCCATTC	1.16
ACTTCCGCAT	2.98
ACTTCGATCT	1.07
ACTTCGGTTG	1.01
ACTTCTCATA	1.04
ACTTCTTTTG	0.951
ACTTGAGAAG	0.987
ACTTGAGTGG	0.975
ACTTGATTAC	1.06
ACTTGATTTC	1.01
ACTTGCGCGC	1.02
ACTTGCGTA	1.02
ACTTGCTTCA	0.999
ACTTGGATTC	1
ACTTGGTCAC	1.07
ACTTGTCCGT	1.03
ACTTTAAACG	1.05
ACTTTAAAGT	1.07
ACTTTAGTCA	1.02
ACTTTCATGT	0.977
ACTTTCTCTT	0.999
ACTTTGCCGA	1.06

Sequence	switch fluorescence ratio
ACTTTGGCAG	1.02
ACTTTTCAAG	1.04
ACTTTTGTAC	1.04
ACTTTTTTCG	1.09
AGAAAAGCCG	0.952
AGAAAAGGCG	0.999
AGAAAATGG	1.01
AGAAAATGTT	0.968
AGAAACAGGT	0.992
AGAAACGATC	0.989
AGAAACGTCT	1.07
AGAAAGAAGG	1.03
AGAAAGGCCA	1.03
AGAAAGGGG	1.04
AGAAAGTACA	1.19
AGAAATAAAT	0.963
AGAAATTGCG	0.961
AGAACAATGG	1.03
AGAACACGAA	1.06
AGAACCTAGC	1.18
AGAACCTGCT	0.998
AGAACGCATA	2.26
AGAACGCGTG	1
AGAAGACAGC	1.01
AGAAGAGGTC	0.997
